This experiment concerns the target T1, 3nmt1-mECitrine-Ync13 (S. pombe) (UniProt O13683).
T1 sequence: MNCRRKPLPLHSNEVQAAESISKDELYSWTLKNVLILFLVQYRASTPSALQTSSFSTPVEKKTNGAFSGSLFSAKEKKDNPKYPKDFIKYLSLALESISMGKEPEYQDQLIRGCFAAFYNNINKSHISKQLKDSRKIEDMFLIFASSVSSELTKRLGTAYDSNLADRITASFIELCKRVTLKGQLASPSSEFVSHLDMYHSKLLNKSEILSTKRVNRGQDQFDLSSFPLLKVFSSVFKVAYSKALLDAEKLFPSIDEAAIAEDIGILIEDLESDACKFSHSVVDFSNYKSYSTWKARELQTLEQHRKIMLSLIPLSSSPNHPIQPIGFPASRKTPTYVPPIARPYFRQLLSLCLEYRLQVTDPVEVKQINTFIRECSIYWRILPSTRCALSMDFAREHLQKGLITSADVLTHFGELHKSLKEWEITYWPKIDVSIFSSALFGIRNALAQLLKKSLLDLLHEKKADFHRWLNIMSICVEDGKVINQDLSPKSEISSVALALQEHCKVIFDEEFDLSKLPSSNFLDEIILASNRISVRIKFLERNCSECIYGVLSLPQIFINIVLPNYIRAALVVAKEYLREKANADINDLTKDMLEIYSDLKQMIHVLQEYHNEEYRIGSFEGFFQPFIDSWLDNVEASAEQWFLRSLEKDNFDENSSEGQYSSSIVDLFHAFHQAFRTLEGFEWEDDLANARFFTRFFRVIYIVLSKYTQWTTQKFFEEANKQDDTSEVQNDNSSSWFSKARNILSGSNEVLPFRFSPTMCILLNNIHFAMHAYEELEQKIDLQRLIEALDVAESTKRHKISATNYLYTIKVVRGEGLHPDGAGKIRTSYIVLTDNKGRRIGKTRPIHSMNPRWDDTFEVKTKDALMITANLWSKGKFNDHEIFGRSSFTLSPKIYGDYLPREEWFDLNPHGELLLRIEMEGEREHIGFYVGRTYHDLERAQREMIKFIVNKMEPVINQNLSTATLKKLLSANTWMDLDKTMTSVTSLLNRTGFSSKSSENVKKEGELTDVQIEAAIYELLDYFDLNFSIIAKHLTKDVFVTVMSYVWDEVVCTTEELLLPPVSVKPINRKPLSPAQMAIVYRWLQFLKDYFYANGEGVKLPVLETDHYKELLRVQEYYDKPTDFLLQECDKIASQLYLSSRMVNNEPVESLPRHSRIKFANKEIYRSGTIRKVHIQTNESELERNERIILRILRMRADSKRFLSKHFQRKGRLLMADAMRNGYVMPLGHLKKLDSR
In words: ectopic mistargeting to mitochondria (Tom20-GBP); mEGFP-, GFP- or mECitrine-tagged protein 1 mistargeted to mitochondria by Tom20 tagged with GFP-binding protein (GBP) nanobody in live S. pombe cells; recruitment of tdTomato-, mCherry- or RFP-tagged protein 2 to mitochondria seen by confocal microscopy.

No constants are given. Whether binding was seen depends on the method and setting. Some results given as binding are weak or reduced against the parent protein; the word gives no strength.

B1: Rga7-mCherry (protein, UniProt O94466 1-695)
chain: MLSAPSSSTTPASPPTSPPNTTSSDDFAVLKEPKVEAILNSELGLAILNDRIKDYLLTCKELAGFFKKRSILEEESGKNLQKLAKSYLETFQSKHHSPQSFSASVITSMEIHEQLANHSLTLQKTLSAFSDQVIEFHKNAERKRKSIKEYAKKQENAYLEAVMQMDKSKSRFKGAETEYNRALDNKNTGDSQKKVGFFKPKSNAQLTKLEDEARLKAENAESDMHSKIENAQNVQKQLLCIHRPNYIKQFFSLQREIESSLIANYLRYTKLCESNTLLNGLTIRPQKPTPTNCGLQHALDNINANTDFVQYVLHASIKHEDNKNPTDASKTKIIQPPSSYGTGSSAGKTNPPVNPTIKVTAAIPSPLQNTNPAPSTFPNPSVASPAFPNSSTSNPSTAPASASPLASTLKPSTANDTNGSSSSSSSNPRTSSPLASNAENKPPVAQQSPPVLLPTLPPIQTTTIQTSREVAPPPSSINSNRAASPFRPTSVSPQPSSPTKSLLFGARLDAIILREHSNIPNIVMQCTSQVENFGLNLQGIYRVPSSSARVNMLRSQFENNPLLQLHTPEDYENDVHAVADLLKIFFRELREPLIPDNHQRDFIDAGNVEDESRRRDAVHRAINDLPDANYSTIRHLTIHLAKIKENSDVNKMSTNNLAIIWGPTIIKQATIPEISSFSRTIEILIDYCFTIFDYD
Take B1: the binding result was “binds”.

B2: Sec1-tdTomato (protein, UniProt O94590 1-693)
chain: MTLLELQKELFLSKINSVECATKWKVLIVDTKTADIINHFITIHSLLEEKIAAVEILENPRTPNSSFEALYILHSEEKLVDCILKDEEYDKRYPGIHIVFLDMVKEPLINKLRTSRIASKIRTVQVAYLDFTSLESRYFQVHDSFSGLRLYHPSNAAIIRQELSKVAHGIFSVCVSLGISPNIRCYYPKNAPHASKTMSFILANQLSEIVEEYCSKHPGYHEAASKSTCLIVDRSLDTAAPFLHEFTYQAMIHDLLPIKNEQYPYEILGPQGTEKRTGKLDDDDLVYTTIRHMHMRDAIEKLMKDFNQFCIDNTLFLDKERATSLNDMRSMLAGLSDFQELRDQYSLHLTMAQECMNIFEKQQLNLIGAIEQDLSTGSNVEGKVPRSVLSELLPLLDEGNAEESTKIRLLLLYIIYRDGIILQDLFRLFRHSNLSTSREQIFQNLEQLGTRVIKNLTDQSSKRKEVANSLPAGEDVYELSRYVPTLKVVLENLIQDKLDPELFPYVRNTTPQTEVSMEQTSLRSSRPSWTRSRSMASKLPREKMLVFVAGGTTFSELRTCYELSDKYNKDIYIGSTVCYSPNEWLDFFSKFQQPREALKFPEDKPRHIPCLEARPSPNRIQEQPNIDVPSTRYENTSSSDAVSIHKDEKKSKGKSHKLGKLMMSSKKDKDKSKEKVPTYGTSDKKKKKRFGVF
For the molecule B2, the binding entry is listed as “binds”.

B3: Fim1-mCherry (protein, UniProt O59945 1-614)
chain: MLALKLQKKYPELTNEEILTLTDQFNKLDVDGKGYLDQPTTIKAFEDSKKGSYDEVREAIREVNVDSSGRVEPEDFVGIFNVLKKGVEGTEVKKGRITIKGSSSSVSHTINEEERREFIKHINSVLAGDPDVGSRVPINTETFEFFDQCKDGLILSKLINDSVPDTIDERVLNKQRNNKPLDNFKCIENNNVVINSAKAMGGISITNIGAGDILEGREHLILGLVWQIIRRGLLGKIDITLHPELYRLLEEDETLDQFLRLPPEKILLRWFNYHLKAANWPRTVSNFSKDVSDGENYTVLLNQLAPELCSRAPLQTTDVLQRAEQVLQNAEKLDCRKYLTPTAMVAGNPKLNLAFVAHLFNTHPGLEPLNEEEKPEIEPFDAEGEREARVFTLWLNSLDVTPSIHDFFNNLRDGLILLQAYDKITPNTVNWKKVNKAPASGDEMMRFKAVENCNYAVDLGKNQGFSLVGIQGADITDGSRTLTLALVWQMMRMNITKTLHSLSRGGKTLSDSDMVAWANSMAAKGGKGSQIRSFRDPSISTGVFVLDVLHGIKSEYVDYNLVTDGSTEELAIQNARLAISIARKLGAVIFILPEDIVAVRPRLVLHFIGSLMAV
In the case of B3, the binding entry was “no binding”.

B4: Rng10-mCherry (protein, UniProt Q9P6L9 1-1038)
chain: MEENTAQKQSNATGLQRHVSGRWISNVPSYEGNEWSSEESESEDKESNLTSSENIGKNPERELNSDGTDRIIEEEEEEDDIENEASSFSEQSENENYDFSYPGTFVYRKAASSSHETLATKVVSADESARLWAEKRRFLLQKLGKDPNSKPIDYKSSMASSSTRSSQSSQVSAIQPQSQDDNRVSDIRQMENRRELNVKRRSVSSPAEDLAIRPLSFSRYKKAEEIPESLPPIKGRDSFSSVRELNESNVFARAPNKNRFSFASVAETGSGSNFSRATSSRSSKTRSVVYEPNHRHTSFFGDTLSNLSSSLNDKKSPNDDHAVLDSELMEQTLPDSAEAVEIANNVKEDIVSTANDDANELDNTSEKATLETSSKPVTEQAIEQSEVVQEVEEGDTNMTTNTILKPTDEIINKGYAYSITSSHSNHSNEKFEQIPSPDEKLSRTDIDTHVKQLQTTKSTDSLSIPFVESPQQNPEEELSDSLSNDFGIDAEKEKDENLSKPEHHPSITSVNSPFLYSPSKQPSGELDEENLKLRLQDSDVDDEVATIRSLKQNNATNSEVETVTNDPSFSQQPGTHSRILRNFDAISSIDSIPDSFSDSAVDLPVDSSKYTLVGKTQSNSNLLQDNAEKHISKSNLEKVDVKGDTSPNSVEQGIEPQAASVVGSPRSSLVSNNSLEEGALLKNSESLESIYGYLSEEPDPALTKLNTEDPFWTKGSSDDEHTIASVEQDVYPYKTSLPTIVEATTSHTESSNSKAPAIEETTTTKVEVVAAHDAVSISSNSSTHKSHSEPLNRDELEVAALSRGSLPEPPKPNKQIVVQEEDQRDTLSLKTSTTGLSSHSKSAENNSTQQSTTSPSINSGASADAVSSGISKKADNSETNLNYFATLDAFVKSPLMSFDGLGELGSTDQRYNFFNQKIQEYSAYDSGLDNWIQFCLEKDGEAPKEAPPPPRSEPVSTTTKLAKRITQPSLSPARSTVTITHNIATEAKKKSKSAANDILHLFKKKAKSEQSNAKSSSSSIKESKKMKTLFGKKLGFKS
In the case of B4, the binding entry is on record as “binds”.

B5: Clc1-mCherry (protein, UniProt Q9USP6 1-229)
chain: MSQFPALEDFDDGLVTAPVDDSKNNTDFLEREKLALGEDAGQFETPEDKDALLNFENDSEAEQTRFEQNFPPIDAEMQASGTFSAPKAPYMGQAEVHPPEDESGDPEPVRKWKEDQMKRIQERDESSKKLRESNIEKARKAIDDFYENFNDKRDKVIAKSRKEQEKLLEENESKSTGTTSWERILKLIDLSDKPEAHGRSTERFRELLISLAKDSNAPGAAGTTVSSSS
B5: the binding entry is “no binding”.
